± gives the standard deviation of the averaged measurements. Laboratory Escherichia coli strains with one amino-acid change in an essential protein, pooled on minimal glucose agar with carbenicillin or gentamicin at twice the control MIC (plus kanamycin and chloramphenicol for the plasmids), 48 h. Fold change of barcode share against drug-free plates; higher = less susceptible. Active = above 20 in both replicates (the paper's putatively resistant). '<' = one read or none on drug, '>' = one read or none on a drug-free plate. Shares are relative, so most strains fall below 1 when a few take over. Listed are strains with at least 15 reads on both drug-free plates, and hits; most hits rest on fewer reference reads. Replicate rank correlation about 0.5. Edits are read from barcodes.
B1: lptF; a variant is named by its letters at X, in order (parent)
chain: MIIIRYLVRETLKSQLAILFILLLIFFCQKLVRILGAAVDGDIPANLVLSLLGLGVPEMAQLILPLSLFLGXLMTLGKLYTESEITVMHACGLSKAVLVKAAMILAVFTAIVAAVNVMWAGPWSSRHQDEVLAEAKANPGMAALAQGQFQQATNGSSVLFIESVDGSDFKDVFLAQIRPKGNARPSVVVADSGHLTQLRDGSQVVTLNQGTRFEGTALLRDFRITDFQDYQAIIGHQAVALDPNDTDQMDMRTLWNTDTDRARAELNWRITLVFTXFXXALXXXPLSVVNPRQGRVLSMLPAMLLYLLFFLIQTSLKSNGGKGKLDPTLWMWTVNLIYLALAIVLNLWDTVPVRRLRASFSRKGAV
B2: trpD; numbered along this chain (parent)
chain: MADILLLDNIDSFTYNLADQLRSNGHNVVIYRNHIPAQTLIERLATMSNPVLMLSPGPGVPSEAGCMPELLTRLRGKLPIIGICLGHQAIVEAYGGYVGQAGEILHGKASSIEHDGQAMFAGLTNPLPVARYHSLVGSNIPAGLTINAHFNGMVMAVRHDADRVCGFQFHPESILTTQGARLLEQTLAWAQQKLEPANTLQPILEKLYQAQTLSQQESHQLFSAVVRGELKPEQLAAALVSMKIRGEHPNEIAGAATALLENAAPFPRPDYLFADIVGTGGDGSNSINISTASAFVAAACGLKVAKHGNRSVSSKSGSSDLLAAFGINLDMNADKSRQALDELGVCFLFAPKYHTGFRHAMPVRQQLKTRTLFNVLGPLINPAHPPLALIGVYSPELVLPIAETLRVLGYQRAAVVHSGGMDEVSLHAPTIVAELHDGEIKSYQLTAEDFGLTPYHQEQLAGGTPEENRDILTRLLQGKGDAAHEAAVAANVAMLMRLHGHEDLQANAQTVLEVLRSGSAYDRVTALAARG
B3: pth; numbered along this chain (parent)
chain: MTIKLIVGLANPGAEYAATRHNAGAWFVDLLAERLRAPLREEAKFFGYTSRVTLGGEDVRLLVPTTFMNLSGKAVAAMASFFRINPDEILVAHDELDLPPGVAKFKLGGGHGGHNGLKDIISKLGNNPNFHRLRIGIGHPGDKNKVVGFVLGKPPVSEQKLIDEAIDEAARCTEMWFTDGLTKATNRLHAFKAQ
B4: bioB; numbered along this chain (parent)
chain: MAHRPRWTLSQVTELFEKPLLDLLFEAQQVHRQHFDPRQVQVSTLLSIKTGACPEDCKYCPQSSRYKTGLEAERLMEVEQVLESARKAKAAGSTRFCMGAAWKNPHERDMPYLEQMVQGVKAMGLEACMTLGTLSESQAQRLANAGLDYYNHNLDTSPEFYGNIITTRTYQERLDTLEKVRDAGIKVCSGGIVGLGETVKDRAGLLLQLANLPTPPESVPINMLVKVKGTPLADNDDVDAFDFIRTIAVARIMMPTSYVRLSAGREQMNEQTQAMCFMAGANSIFYGCKLLTTPNPEEDKDLQLFRKLGLNPQQTAVLAGDNEQQQRLEQALMTPDTDEYYNAAAL

Variants of: B1
Experiment: barcode share on antibiotic plates over drug-free plates; higher = less susceptible
Details: with Escherichia coli (laboratory strain); antibiotic: carbenicillin; 2× MIC (3.1 µg/mL)
Protocol: (§1)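 A pool of E. coli strains, each edited to carry one amino-acid change in an essential protein, was grown for 48 h on minimal glucose agar with or without antibiotic; strain barcodes were sequenced; mean of two replicates.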

| Variant | fold change of barcode share |
| --- | --- |
| LVWMMVV | 0.273 ± 0.036 |

Same assay, conditions: with Escherichia coli (laboratory strain); antibiotic: gentamicin; 2× MIC (MIC 0.45 µg/mL)

| Variant | fold change of barcode share |
| --- | --- |
| LVWMMVV | < 0.00656 |
| LVMMMVD | < 0.00928 |
| LVMMMVP | < 0.0123 |
| LVMMMVQ | < 0.0102 |
| LVMMMWV | 0.0231 ± 0.019 |

Variants of: B2
Experiment: as above
Details: with Escherichia coli (laboratory strain); antibiotic: carbenicillin; 2× MIC (3.1 µg/mL)
Protocol: as §1

| Variant | fold change of barcode share |
| --- | --- |
| M67A | 0.4026 ± 0.0037 |
| F373W | 0.702 ± 0.48 |
| M67P | 0.469 ± 0.14 |
| M67W | 0.433 ± 0.049 |
| F347D | > 21.9 [active] |
| L70Q | 0.366 ± 0.089 |
| L70W | 0.5 ± 0.026 |
| F373A | 0.566 ± 0.11 |
| L70D | 0.667 ± 0.26 |
| M67D | 0.535 ± 0.12 |
| L495A | 0.953 ± 0.69 |
| I81W | 0.402 ± 0.23 |
| I81Q | 0.605 ± 0.033 |
| F347Q | 0.997 ± 0.36 |
| L70A | 0.426 ± 0.17 |
| F347A | 0.356 ± 0.21 |
| I81A | 0.597 ± 0.29 |
| M67Q | 0.418 ± 0.025 |
| F347W | 0.542 ± 0.027 |
| V416A | 0.441 ± 0.11 |

Same assay, conditions: with Escherichia coli (laboratory strain); antibiotic: gentamicin; 2× MIC (MIC 0.45 µg/mL)

| Variant | fold change of barcode share |
| --- | --- |
| M67A | 0.0276 ± 0.033 |
| M67P | < 0.00654 |
| M67W | 0.0124 ± 0.011 |
| L70Q | 0.0195 ± 0.0097 |
| L70W | 1.29 ± 1.8 |
| F373A | 0.0186 ± 0.003 |
| L70D | 0.0409 ± 0.027 |
| M67D | 0.0185 ± 0.0097 |
| L495A | 0.0105 ± 0.0031 |
| L70A | 0.00935 ± 0.00074 |
| F347A | 0.0113 ± 0.01 |
| I81A | < 0.0117 |
| M67Q | 0.00833 ± 0.0028 |
| F347W | 0.0388 ± 0.019 |
| V416A | 0.0804 ± 0.1 |

Variants of: B3
Experiment: as above
Details: with Escherichia coli (laboratory strain); antibiotic: carbenicillin; 2× MIC (3.1 µg/mL)
Protocol: as §1

| Variant | fold change of barcode share |
| --- | --- |
| F27A | 0.25 ± 0.0029 |
| F27D | 0.306 ± 0.049 |
| F27P | 0.417 ± 0.042 |
| F27Q | 0.394 ± 0.043 |
| F27W | 0.317 ± 0.092 |
| V28A | 0.425 ± 0.028 |
| V28D | 0.451 ± 0.12 |
| V28P | 0.369 ± 0.1 |
| V28Q | 0.325 ± 0.017 |
| V28W | 1.12 ± 0.73 |
| L31A | 0.437 ± 0.0084 |
| L31D | 0.634 ± 0.35 |
| L31P | 0.307 ± 0.054 |
| L31Q | 0.4 ± 0.15 |
| L31W | 0.322 ± 0.023 |
| L62D | 0.386 ± 0.049 |
| L90Q | 0.149 ± 0.041 |
| V91Q | 0.0689 ± 0.041 |

Same assay, conditions: with Escherichia coli (laboratory strain); antibiotic: gentamicin; 2× MIC (MIC 0.45 µg/mL)

| Variant | fold change of barcode share |
| --- | --- |
| F27A | 0.0269 ± 0.026 |
| F27D | 0.0401 ± 0.031 |
| F27P | 0.0044 ± 0.00068 |
| F27Q | 0.00694 ± 0.005 |
| F27W | 0.00857 ± 0.0074 |
| V28A | < 0.00477 |
| V28D | 0.0101 ± 0.0024 |
| V28P | 0.0106 ± 0.0097 |
| V28Q | < 0.0035 |
| L31A | < 0.00919 |
| L31D | 0.0386 ± 0.0089 |
| L31P | < 0.00855 |
| L31Q | 0.0224 ± 0.0016 |
| L31W | < 0.00594 |
| L62D | < 0.0192 |
| L62A | < 0.0192 |
| L62W | < 0.0195 |

Variants of: B4
Experiment: as above
Details: with Escherichia coli (laboratory strain); antibiotic: carbenicillin; 2× MIC (3.1 µg/mL)
Protocol: as §1

| Variant | fold change of barcode share |
| --- | --- |
| F305P | 1.32 ± 0.35 |
| V193D | 0.394 ± 0.025 |
| M98Q | 1.05 ± 0.11 |
| V249Q | 0.404 ± 0.021 |
| M98D | 1.44 ± 0.29 |
| I247A | 0.3828 ± 0.0032 |
| V249A | 0.334 ± 0.16 |
| M278A | 0.423 ± 0.012 |
| M116A | 0.625 ± 0.16 |
| V193A | 0.308 ± 0.15 |
| I247P | 0.984 ± 0.32 |
| M98A | 0.497 ± 0.073 |
| V193P | 0.519 ± 0.065 |
| V193W | 0.296 ± 0.051 |
| F305Q | 0.57 ± 0.49 |
| I247W | 1.305 ± 0.0031 |
| V249D | 1.26 ± 0.39 |
| I247D | 1.32 ± 0.11 |
| F305D | 1.19 ± 0.038 |

Same assay, conditions: with Escherichia coli (laboratory strain); antibiotic: gentamicin; 2× MIC (MIC 0.45 µg/mL)

| Variant | fold change of barcode share |
| --- | --- |
| F305P | 0.0201 ± 0.0089 |
| V193D | < 0.0151 |
| M98Q | 0.0118 ± 0.0041 |
| V249Q | 0.0137 ± 0.012 |
| M98D | 0.0282 ± 0.0073 |
| I247A | 0.00474 ± 0.0016 |
| V249A | 0.00538 ± 0.0021 |
| M278A | 0.00563 ± 0.0051 |
| M116A | < 0.00825 |
| I247P | 0.0574 ± 0.063 |
| M98A | 0.0159 ± 0.0016 |
| V193P | < 0.0211 |
| V193W | 0.139 ± 0.15 |
| F305Q | 0.0057 ± 0.0029 |
| I247W | 0.015 ± 0.012 |
| V249D | 0.0262 ± 0.014 |
| I247D | 0.0384 ± 0.007 |
